Measured values taken from the supplement of paper PMC4967469.

Legend:
Experiment in all cases: Viability of human cancer cell lines after 72 h of drug (GDSC screen)
TW-37 = compound: CC(C)c1ccccc1Cc1cc(C(=O)Nc2ccc(S(=O)(=O)c3ccccc3C(C)(C)C)cc2)c(O)c(O)c1O [TW-37]; details: top dose 5 µM
Protocol: (§1)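 Human cancer cell lines in 384-well plates, medium with 10% serum, drug for 72 h over a 256-fold dose range (nine 2-fold or five 4-fold steps up to the top dose). Adherent lines were fixed and stained with the nucleic acid dye Syto60, suspension lines read with resazurin; signal relative to control wells, capped at 0 and 100%. One two-parameter sigmoid per drug and line, fitted in a mixed model over all curves with the slope shared within a line.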

KIN001-270 = compound: Cc1ccc(Nc2cc(-c3cccc(N4C(=O)c5ccccc5C4=O)c3)ncn2)cc1NS(C)(=O)=O [KIN001-270]; details: top dose 20 µM; top dose inferred
Protocol: as §1

LFM-A13 = compound: C/C(O)=C(\C#N)C(=O)Nc1cc(Br)ccc1Br [LFM-A13]; details: top dose 16 µM; top dose inferred
Protocol: as §1

AUY922 = compound: CCNC(=O)c1noc(-c2cc(C(C)C)c(O)cc2O)c1-c1ccc(CN2CCOCC2)cc1 [AUY922]; details: top dose 0.256 µM; top dose inferred
Protocol: as §1

Nilotinib = compound: Cc1cn(-c2cc(NC(=O)c3ccc(C)c(Nc4nccc(-c5cccnc5)n4)c3)cc(C(F)(F)F)c2)cn1 [Nilotinib]; details: top dose 2 µM
Protocol: as §1

Gemcitabine = compound: Nc1ccn([C@@H]2O[C@H](CO)[C@@H](O)C2(F)F)c(=O)n1 [Gemcitabine]; details: top dose 1.024 µM
Protocol: as §1

MP470 = compound: S=C(NCc1ccc2c(c1)OCO2)N1CCN(c2ncnc3c2oc2ccccc23)CC1 [MP470]; details: top dose 20 µM; top dose inferred
Protocol: as §1

Bicalutamide = compound: CC(O)(CS(=O)(=O)c1ccc(F)cc1)C(=O)Nc1ccc(C#N)c(C(F)(F)F)c1 [Bicalutamide]; details: top dose inferred
Protocol: as §1

GNF-2 = compound: NC(=O)c1cccc(-c2cc(Nc3ccc(OC(F)(F)F)cc3)ncn2)c1 [GNF-2]; details: top dose 1.28 µM; top dose inferred
Protocol: as §1

T0901317 = compound: O=S(=O)(c1ccccc1)N(CC(F)(F)F)c1ccc(C(O)(C(F)(F)F)C(F)(F)F)cc1 [T0901317]; details: top dose 10.24 µM; top dose inferred
Protocol: as §1

[1] = top dose 1.024 µM, screen: GDSC drug entry 150
[2] = top dose 10 µM, screen: GDSC drug entry 1502

Row | Cell Line | AUC (TW-37) | IC50 (TW-37) [nM] | AUC (KIN001-270) | IC50 (KIN001-270) [nM] | AUC (LFM-A13) | IC50 (LFM-A13) [nM] | AUC (AUY922) | IC50 (AUY922) [nM] | AUC (Nilotinib) | IC50 (Nilotinib) [nM] | AUC (Gemcitabine) | IC50 (Gemcitabine) [nM] | AUC (MP470) | IC50 (MP470) [nM] | AUC (Bicalutamide; [1]) | IC50 (Bicalutamide; [1]) [nM] | AUC (Bicalutamide; [2]) | IC50 (Bicalutamide; [2]) [nM] | AUC (GNF-2) | IC50 (GNF-2) [nM] | AUC (T0901317) | IC50 (T0901317) [nM]
1 | OCI-AML5 (acute myeloid leukaemia, suspension) | 0.623 | 658 | 0.948 | > 20000 | 0.953 | > 16000 | 0.462 | 12.7 | 0.975 | > 2000 | 0.237 | 12.1 | 0.89 | 19700 | 0.988 | > 1020 | 0.987 | > 10000 | 0.964 | > 1280 | 0.918 | > 10200
2 | ES-2 (ovary, adherent) | 0.47 | 262 | 0.93 | > 20000 | 0.986 | > 16000 | 0.784 | 95.3 | 0.99 | > 2000 | 0.525 | 74.4 | 0.814 | 9310 | 0.987 | > 1020 | 0.99 | > 10000 | 0.991 | > 1280 | 0.977 | > 10200
3 | EM-2 (chronic myeloid leukaemia, suspension) | 0.572 | 504 | 0.955 | > 20000 | 0.979 | > 16000 | 0.704 | 65.5 | 0.096 | < 7.81 | 0.62 | 143 | 0.871 | > 20000 | 0.98 | > 1020 | 0.976 | > 10000 | 0.628 | 190 | 0.934 | > 10200
4 | A3-KAW (B-cell lymphoma, suspension) | 0.518 | 346 | 0.606 | 2300 | 0.956 | > 16000 | 0.594 | 27.3 | 0.993 | > 2000 | 0.128 | 6.3 | 0.117 | 111 | 0.993 | > 1020 | 0.97 | > 10000 | 0.986 | > 1280 | 0.862 | 6000
5 | RPMI-8402 (T-cell lymphoblastic leukaemia, suspension) | 0.553 | 426 | 0.935 | > 20000 | 0.986 | > 16000 | 0.589 | 26.8 | 0.989 | > 2000 | 0.414 | 38.7 | 0.867 | 13400 | 0.988 | > 1020 | 0.977 | > 10000 | 0.991 | > 1280 | 0.912 | > 10200
6 | LC4-1 (lymphoblastic leukaemia, suspension) | 0.881 | > 5000 | 0.949 | > 20000 | 0.929 | > 16000 | 0.682 | 54.7 | 0.972 | > 2000 | 0.607 | 130 | 0.881 | > 20000 | 0.984 | > 1020 | 0.979 | > 10000 | 0.98 | > 1280 | 0.771 | 4350
7 | CCRF-CEM (lymphoblastic leukaemia, suspension) | 0.405 | 180 | 0.979 | > 20000 | 0.96 | > 16000 | 0.509 | 16.9 | 0.922 | > 2000 | 0.291 | 18.5 | 0.947 | > 20000 | 0.989 | > 1020 | 0.989 | > 10000 | 0.989 | > 1280 | 0.953 | > 10200
8 | GB-1 (glioma, adherent) | 0.394 | 151 | 0.963 | > 20000 | 0.966 | > 16000 | 0.433 | 10.1 | 0.983 | > 2000 | 0.165 | 4.83 | 0.874 | > 20000 | 0.976 | > 1020 | 0.935 | > 10000 | 0.943 | > 1280 | 0.983 | > 10200
9 | NCI-H64 (small cell lung carcinoma, suspension) | 0.684 | 878 | 0.993 | > 20000 | 0.988 | > 16000 | 0.572 | 23.9 | 0.987 | > 2000 | 0.734 | 240 | 0.281 | 364 | 0.995 | > 1020 | – | – | 0.996 | > 1280 | 0.975 | > 10200
10 | HT (B-cell lymphoma, suspension) | 0.59 | 538 | 0.941 | > 20000 | 0.984 | > 16000 | 0.806 | 118 | 0.99 | > 2000 | 0.907 | > 1020 | 0.957 | > 20000 | 0.988 | > 1020 | 0.94 | > 10000 | 0.99 | > 1280 | 0.968 | > 10200
11 | EoL-1-cell (haematopoietic neoplasm, suspension) | 0.58 | 504 | 0.883 | 17000 | 0.98 | > 16000 | 0.567 | 23.8 | 0.034 | < 7.81 | 0.21 | 10.3 | 0.498 | 1240 | 0.988 | > 1020 | 0.958 | > 10000 | 0.984 | > 1280 | 0.926 | > 10200

The IC50 comes from the fitted curve, where viability falls to half of the control; fits outside the tested doses are given as limits. AUC sums up the same curve from the lowest dose to the 256-fold higher top dose; values near 1 show little effect. For part of these data: An inferred top dose was derived from the fitted curves, not read from the paper. For part of these data: An entry number marks a drug with two screens in the source, which often give different values.
